Results: the supplement of paper PMC10126150
Sequences with one replicate were seen in a single cluster, so their values are uncertain.

tested on: ATP; test: switch fluorescence ratio, 500 uM ATP over buffer (Cy3 cluster intensity, sum of 5 cycles each) (fold (ratio)); higher = stronger signal-on switching upon ATP binding; sequences stand for … in TCGTCGGCAGCGTCAGATGTGTATAAGAGACAGTTTTTTTTTTTTTTTTTTTTTTTTT…TC; settings: aptamer strand: ATP DNA aptamer (quencher-CACCTGGGGGAGTATTGCGGAGGAAGG + anchor), 100 nM annealed; ATP concentration: 500 uM; one replicate
Method in brief: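 After annealing to 100 nM quencher-labelled ATP aptamer, Cy3-labelled switching-strand clusters on a modified Illumina MiSeq flow-cell were imaged in selection buffer. A second image followed after 15 min with 500 uM ATP at 22 °C, and five such buffer/ATP cycles were done, each separated by NaOH stripping and re-annealing. The fluorescence ratio, averaged per switch-domain sequence, is summed target-cycle over summed buffer-cycle Cy3 intensity per cluster, with clusters outside 100-1000 RFU excluded.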
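Also: ATP exposure 15 min at 22 °C before imaging.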

Sequence	switch fluorescence ratio
CATAAGCACC	1.42
TTCGTCTAA	0.974
GATAAAGCCT	0.995
GATTTCTCAC	1.08
TATGTCCGCG	1.1
CGTCTACGC	1.05
ACCAGTGGTA	1
GTGCGTAGAA	0.972
ATTTAGGGTC	1.07
GTATAAACTT	1.09
GCACAGGATC	1.01
AGTTGTGTTC	0.934
GCTTGCCCGA	1.03
TATAATATTG	0.963
TCAAGTCGTT	0.984
TGGACGGCCC	1.06
AGGCTCGCGA	1.01
AATTAGAGGA	0.968
TCGCAGCTCT	1.37
GTGGATAGCG	0.987
GCCATAGCGT	1.01
TGGGTCCCGT	1.01
AAAACTCTCC	1.22
GAATTTATGA	1.01
TCCGATCATG	1.11
CCAGATCGTA	1.01

Sequence	switch fluorescence ratio
ACGAAACTTA	1.16
GGTGATCACA	0.972
CTTGAAACCC	1.02
TCAGGAGGCC	1.07
ACCATCTTGA	1.03
CCTATGTTGC	1.32
TGCCGTGACA	0.988
ACACTGGCTA	1.04
ATCGTACTTC	1.06
CAGGAGAATG	1.01
GACTTCTAAC	1.03
ACAGGGGCAA	0.924
GAGAATTATC	0.979
CTACTTGTGG	0.958
ACTACTTTC	1.08
AACAGGCGT	1.01
GGGTGCCGCT	1.04
GACAACATAA	1.04
CGTCTCATTA	0.978
CCAGGGTGAT	1.5
GGCACTATAG	1.03
GGGGACGAGA	1.01
GGAAGAAGTC	1.5
AATCAGAAGA	1.01
TACGCTAGGG	1.05
TCGCCTATGG	1.02

Sequence	switch fluorescence ratio
GAGGACTTCG	1
GGATCTATAC	1.2
TACGGTTCAT	1.06
AAGGCAGAAC	1.27
TGATCCTTTT	0.989
CGATCACGGG	1.11
GCCAATAAGC	0.986
ATACTTCCCC	2.83
CTCTTGAGGC	0.977
TGACTGCGTC	0.959
AGTCAATGTC	1.1
ACGGGAAGCT	0.99
TAGAGCTGTG	0.974
CTGAATGGTA	1.01
TCGCACTTCG	1.05
AGAAGAGTGG	1.03
TGTTGCCTCT	1.01
GGAGGACTGT	1
ACTTAGCTGG	0.985
TTCGAGACGC	0.931
GCCATATGA	1.04
TGCTTATCGA	0.95
GGCGCGATTC	3.22
GGGCCTTGTG	0.951
GCATCAAATT	0.995
CGCTTACATG	1.07

Sequence	switch fluorescence ratio
AGATTCACGG	1.03
TTTCTCGGTC	0.965
CTATTATTGG	1.01
CCATTAAGA	1.02
ACTGTTTGCA	0.99
CTACACTCGT	1.02
TACAGCTCGA	1.02
ATATCTTCGA	0.967
CGTTCTCCGG	1.12
CCAGGTCCAG	1.06
CATCTCGGGA	0.989
TAGTCGTGAC	1.03
CGTTATTTAA	1.01
ATCATGTATG	0.982
CTCAACGTCA	1.11
TGGGGCTAAA	0.978
AGCAACTAAT	1.05
CAGCCGCCGG	1.03
GCCCTGCACC	1.05
ATTAATTG	0.935
GTCTTAGATG	1.05
CACGATTATC	1.06
AGGTCAATTT	0.969
AGACAAGATC	1.01
CGTGTGGAGG	1.01
AGTCTGGCAG	1.01

Sequence	switch fluorescence ratio
TCGAAACGGT	0.967
TCAGGCTCGC	0.977
GTTAACCGCT	1.08
CGATTGTGG	0.994
ATAAAGTCCA	1.01
TTGTGAAAGT	0.977
GTCCAAAACA	1.02
ACGCACTTT	1.49
ACGGGGACGT	0.987
TACACTTTAC	2.08
CTCTCGTAGA	1.04
GGTTTTAGAG	0.964
TCATGTCTGG	0.934
CCGAAACGCC	2.28
GCCTAGGCCT	0.979
CTTAGGAAGA	0.977
CGACTAGACC	1.08
GATTTATGTG	1
AGATAGACCA	0.965
TTTAAGACTT	0.955
CGCGGTTAAC	1.3
GGTTACGTTG	0.988
AAAACCTAGG	1.06
CGTAGCCTGC	1.14
GGGACTATGT	1.02
TTATCAGGCA	1.02

Sequence	switch fluorescence ratio
ACGTATGTTC	0.998
ATTTGGGCG	1.08
ACATTCGTTG	0.997
TAAATATATT	0.938
TGAGCCCAGA	1.03
CGGTGACTAG	0.994
ACACGTCAAT	1.42
AATACGAGGG	1.07
TTCAGTCTCG	0.982
TAGCCCAAAA	0.997
TTAGAGACCT	1.37
CGGGTTTTCT	0.998
AAAATCTATC	1.05
CATGCTATC	1.07
CCCAACATAA	1.05
GTATGCTAGA	0.957
GCATTCGTTG	1.03
CATCAATGCT	1.36
TATTAGTAAA	1.02
ATGTGCCAGA	0.983
GAGTTCGTAT	1
GGAGAATTCT	0.912
ATATGTAAT	0.983
AATATTGGAG	1.04
GCGGAACTTA	0.974
TGTGGATTGC	1

Sequence	switch fluorescence ratio
ACCTCTCAGG	1.05
TTGCAAAGGA	0.969
TACCCGGAGC	1.54
GGAGATGATG	0.987
GTCGGGTTCG	0.961
TTGTCCGTCA	1.01
GCCCTAATAA	1.02
CCCTGCCAT	1.4
GAACTAAGGG	0.997
GTAATACAGA	1.04
ATCGTAGCAT	1.31
TTCGGAAAGT	0.964
GAAAGGGGCG	1.02
TACGTTAACT	1.13
ACGTCAGAAC	1.22
TTGCGCCCGA	1.01
GACATTCTGT	0.998
TACCTGGCGC	1.03
GATGAGTGTA	0.93
TATGATCTAT	1.02
CAGCCCTCCT	1.07
TCGT	1.03
GAGCATGGGT	1.06
CTTATGGCTA	0.946
GGTATATCAG	0.978
TCCGGCCCAC	1.59

Sequence	switch fluorescence ratio
CTGAAAGGCA	1.03
TTTAGCCCGG	0.985
TTTTTCCTGC	0.989
ACGGGTAT	1.3
TCACTTCGGT	0.916
TCCATGTAAG	0.977
GGTGAGAACT	1.01
CGCCGGGGTT	1.2
TAATTGAGGA	1.01
TAAATTTATG	0.983
CATGGACGCT	1.02
TAGGTCCTGA	0.961
GTGCGCATGC	1.12
CCTGCGGAGG	1.15
GCGATCCGTG	1.03
TTGCTACAAT	0.962
CCATTGATTT	1
ATGAATTTCT	0.987
TAGGATTGCG	0.983
